According to patent US8735349B2, “Method for improving glucose tolerance in a diabetes type 2 patient of younger than 50 years and having postprandial plasma glucose concentration of at least 14 mmol/L” (priority 2011, dated 2014):

Assays:
[1] = test system: obese type 2 diabetic patients younger than 50 and not adequately controlled with metformin; test: Example 2: change in fasting plasma glucose (FPG); details: mITT
[2] = test system: obese type 2 diabetic patients younger than 50 and not adequately controlled with metformin; test: Example 2: insulin resistance assessed by HOMA-IR; details: mITT
[3] = test system: obese type 2 diabetic patients younger than 50 and not adequately controlled with metformin; test: Example 2: change in body weight and patients with ≧5% weight loss; details: for Body weight, observed data, Mean / Body weight, observed data, Median / Body weight, change from baseline, Mean / Body weight, change from baseline, Median: mITT population
[4] = test system: obese type 2 diabetic patients younger than 50 and not adequately controlled with metformin; test: Example 2: 2-hour postprandial plasma glucose after a standardized meal test; details: mITT

Question: What does the source list for `N[C@@H](CC(=O)N1CCn2c(nnc2C(F)(F)F)C1)Cc1cc(F)c(F)cc1F` [sitagliptin]?
Answer: LS mean change from baseline to Week 24 in FPG ([1]; add-on to metformin): -0.69 mmol/L; Fasting plasma glucose Change from baseline to week 24 (LOCF) Mean (SD) [1]: -0.63 mmol/L; Fasting plasma glucose Change from baseline to week 24 (LOCF) Median [1]: -0.50 mmol/L; Fasting plasma glucose Change from baseline to week 24 (LOCF) LS Mean (SE) ([1]; ANCOVA): -0.69 mmol/L; Fasting plasma glucose Week 24 (LOCF) Mean (SD) ([1]; Week 24 (LOCF)): 8.33 mmol/L; Fasting plasma glucose Week 24 (LOCF) Median ([1]; Week 24 (LOCF)): 7.83 mmol/L; Fasting plasma glucose Baseline Mean (SD) ([1]; baseline): 8.96 mmol/L; Fasting plasma glucose Baseline Median ([1]; baseline): 8.82 mmol/L; LS mean change from baseline to Week 24 in HOMA-IR ([2]; add-on to metformin): −0.57; HOMA-IR Change from baseline to week 24 (LOCF) Mean (SD) [2]: −0.75 (4.13); HOMA-IR Change from baseline to week 24 (LOCF) Median [2]: −0.52; HOMA-IR Change from baseline to week 24 (LOCF) LS Mean (SE) ([2]; ANCOVA): −0.57 (0.378); HOMA-IR Week 24 (LOCF) Mean (SD) ([2]; Week 24 (LOCF)): 5.36 (4.31); HOMA-IR Week 24 (LOCF) Median ([2]; Week 24 (LOCF)): 4.22; HOMA-IR Baseline Mean (SD) ([2]; baseline): 6.12 (5.08); HOMA-IR Baseline Median ([2]; baseline): 4.90; Body weight, observed data, Mean ([3]; Baseline): 100.56 kg; Body weight, observed data, Median ([3]; Baseline): 97.30 kg; Body weight, observed data, Mean ([3]; Screening): 100.73 kg; Body weight, observed data, Median ([3]; Screening): 97.20 kg; Body weight, change from baseline, Mean ([3]; Week 4): -0.53 kg; Body weight, change from baseline, Median ([3]; Week 4): -0.30 kg; Body weight, observed data, Mean ([3]; Week 4): 99.80 kg; Body weight, observed data, Median ([3]; Week 4): 97.30 kg; Body weight, change from baseline, Mean ([3]; Week 8): -0.75 kg; Body weight, change from baseline, Median ([3]; Week 8): -0.70 kg; Body weight, observed data, Mean ([3]; Week 8): 99.17 kg; Body weight, observed data, Median ([3]; Week 8): 97.20 kg; Body weight, change from baseline, Mean ([3]; Week 12): -0.92 kg; Body weight, change from baseline, Median ([3]; Week 12): -0.55 kg; Body weight, observed data, Mean ([3]; Week 12): 98.32 kg; Body weight, observed data, Median ([3]; Week 12): 96.55 kg; Body weight, change from baseline, Mean ([3]; Week 16): -0.99 kg; Body weight, change from baseline, Median ([3]; Week 16): -0.80 kg; Body weight, observed data, Mean ([3]; Week 16): 98.16 kg; Body weight, observed data, Median ([3]; Week 16): 96.15 kg; Body weight, change from baseline, Mean ([3]; Week 24 (LOCF)): -0.89 kg; Body weight, change from baseline, Median ([3]; Week 24 (LOCF)): -0.50 kg; Body weight, observed data, Mean ([3]; Week 24 (LOCF)): 99.43 kg; Body weight, observed data, Median ([3]; Week 24 (LOCF)): 97.35 kg; Body weight, change from baseline, Mean ([3]; Week 24): -0.97 kg; Body weight, change from baseline, Median ([3]; Week 24): -0.50 kg; Body weight, observed data, Mean ([3]; Week 24): 97.91 kg; Body weight, observed data, Median ([3]; Week 24): 97.00 kg; patients with ≧5% weight loss from baseline to Week 24 ([3]; add-on to metformin, mITT): 11.9%; Body weight Change from baseline to week 24 (LOCF) Mean (SD) ([3]; mITT): −0.89 (3.37) kg; Body weight Change from baseline to week 24 (LOCF) Median ([3]; mITT): -0.50 kg; Patients with <5% weight loss from baseline to Week 24 ([3]; mITT): 141 (88.1%) n (%); patients with ≧5% weight loss from baseline to Week 24 ([3]; mITT): 19 (11.9%) n (%); Body weight Change from baseline to week 24 (LOCF) LS Mean (SE) ([3]; mITT, ANCOVA): −1.17 (0.304) kg; Body weight Week 24 (LOCF) Mean (SD) ([3]; mITT, Week 24 (LOCF)): 99.43 (24.00) kg; Body weight Week 24 (LOCF) Median ([3]; mITT, Week 24 (LOCF)): 97.35 kg; Body weight Baseline Mean (SD) ([3]; mITT, baseline): 100.33 (23.65) kg; Body weight Baseline Median ([3]; mITT, baseline): 97.15 kg; 2-hour postprandial plasma glucose Change from baseline to week 24 (LOCF) Mean (SD) [4]: -1.66 mmol/L; 2-hour postprandial plasma glucose Change from baseline to week 24 (LOCF) Median [4]: -1.88 mmol/L; 2-hour postprandial plasma glucose Change from baseline to week 24 (LOCF) LS Mean (SE) ([4]; ANCOVA): -1.44 mmol/L; 2-hour postprandial plasma glucose Week 24 (LOCF) Mean (SD) ([4]; Week 24 (LOCF)): 12.15 mmol/L; 2-hour postprandial plasma glucose Week 24 (LOCF) Median ([4]; Week 24 (LOCF)): 11.88 mmol/L; 2-hour postprandial plasma glucose Baseline Mean (SD) ([4]; baseline): 13.82 mmol/L; 2-hour postprandial plasma glucose Baseline Median ([4]; baseline): 14.10 mmol/L
